Laboratory results published in article PMC7078464.
Results are given in words; binding and its absence hold for the method and conditions named. For part of these data: Binding seen in cells or lysates may run through a third protein. Some results given as binding are weak or reduced against the parent protein; the word gives no strength. For part of these data: Where a sequence is shown, tags or fusion partners need not be part of it.

Chains of the proteins cited; added tags and fusions are not shown. Lines headed by an entry give the natural chain unless they say otherwise; changes in a name come on top. A line that says so, or that is headed by a name, gives the form on record, which may keep a tag or linker.
UniProt P29590: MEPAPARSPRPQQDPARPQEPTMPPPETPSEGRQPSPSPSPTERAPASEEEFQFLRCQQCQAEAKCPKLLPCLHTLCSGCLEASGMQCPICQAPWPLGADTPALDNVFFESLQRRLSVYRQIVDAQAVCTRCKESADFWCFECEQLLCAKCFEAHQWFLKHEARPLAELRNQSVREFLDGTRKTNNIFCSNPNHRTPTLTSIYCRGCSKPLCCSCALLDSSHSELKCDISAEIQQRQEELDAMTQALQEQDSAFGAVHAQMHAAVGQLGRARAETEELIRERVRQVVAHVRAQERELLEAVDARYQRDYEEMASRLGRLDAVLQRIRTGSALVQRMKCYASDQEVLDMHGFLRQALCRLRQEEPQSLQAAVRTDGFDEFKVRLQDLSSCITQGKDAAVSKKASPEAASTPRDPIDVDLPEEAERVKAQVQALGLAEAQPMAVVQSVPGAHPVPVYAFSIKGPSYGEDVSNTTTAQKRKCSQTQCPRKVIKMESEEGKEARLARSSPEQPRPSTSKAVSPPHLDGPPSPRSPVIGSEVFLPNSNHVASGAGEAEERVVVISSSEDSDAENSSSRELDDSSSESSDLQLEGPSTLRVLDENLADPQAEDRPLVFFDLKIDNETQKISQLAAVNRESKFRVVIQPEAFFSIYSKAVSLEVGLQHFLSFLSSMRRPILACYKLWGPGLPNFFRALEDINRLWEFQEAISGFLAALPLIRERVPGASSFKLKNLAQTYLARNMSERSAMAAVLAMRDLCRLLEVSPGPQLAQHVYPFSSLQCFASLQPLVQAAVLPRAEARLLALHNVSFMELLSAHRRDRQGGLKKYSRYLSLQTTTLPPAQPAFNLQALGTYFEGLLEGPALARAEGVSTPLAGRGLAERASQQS
N-terminally YFP-tagged human Sp100 isoform A (pYFP-Sp100A) (P23497, form named): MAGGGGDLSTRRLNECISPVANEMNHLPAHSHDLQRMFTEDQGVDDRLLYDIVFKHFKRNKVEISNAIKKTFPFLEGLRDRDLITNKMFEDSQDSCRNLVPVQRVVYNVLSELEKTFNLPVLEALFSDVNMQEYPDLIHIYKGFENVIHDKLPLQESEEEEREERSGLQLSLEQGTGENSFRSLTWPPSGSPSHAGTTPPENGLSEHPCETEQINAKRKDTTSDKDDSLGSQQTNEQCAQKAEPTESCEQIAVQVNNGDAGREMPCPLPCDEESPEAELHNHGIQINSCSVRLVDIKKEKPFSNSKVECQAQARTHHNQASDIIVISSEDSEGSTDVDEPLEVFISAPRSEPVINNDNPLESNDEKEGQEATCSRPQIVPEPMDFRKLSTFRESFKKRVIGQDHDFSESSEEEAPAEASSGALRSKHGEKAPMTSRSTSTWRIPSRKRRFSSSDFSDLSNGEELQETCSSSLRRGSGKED
UniProt P63279: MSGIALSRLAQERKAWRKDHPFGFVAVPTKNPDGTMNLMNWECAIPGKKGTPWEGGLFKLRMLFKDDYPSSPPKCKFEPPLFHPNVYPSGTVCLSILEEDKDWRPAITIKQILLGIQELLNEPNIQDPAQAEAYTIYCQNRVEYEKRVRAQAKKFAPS

What was measured:
[1] = target: endogenous promyelocytic leukemia protein (PML) (human (endogenous in HepaRG)) (UniProt P29590); experiment: co-IP
[2] = target: N-terminally YFP-tagged human Sp100 isoform A (pYFP-Sp100A) (human) (UniProt P23497); experiment: co-IP
[3] = target: GFP-tagged wild-type E2A (pGFP-E2A-wt) (human adenovirus (HAdV); type not stated for the plasmid) (UniProt P03265); experiment: co-IP
[4] = target: T1, SUMO E3 ligase PIAS4, yeast two-hybrid fusion (UniProt Q8N2W9); experiment: two-hybrid
T1 sequence: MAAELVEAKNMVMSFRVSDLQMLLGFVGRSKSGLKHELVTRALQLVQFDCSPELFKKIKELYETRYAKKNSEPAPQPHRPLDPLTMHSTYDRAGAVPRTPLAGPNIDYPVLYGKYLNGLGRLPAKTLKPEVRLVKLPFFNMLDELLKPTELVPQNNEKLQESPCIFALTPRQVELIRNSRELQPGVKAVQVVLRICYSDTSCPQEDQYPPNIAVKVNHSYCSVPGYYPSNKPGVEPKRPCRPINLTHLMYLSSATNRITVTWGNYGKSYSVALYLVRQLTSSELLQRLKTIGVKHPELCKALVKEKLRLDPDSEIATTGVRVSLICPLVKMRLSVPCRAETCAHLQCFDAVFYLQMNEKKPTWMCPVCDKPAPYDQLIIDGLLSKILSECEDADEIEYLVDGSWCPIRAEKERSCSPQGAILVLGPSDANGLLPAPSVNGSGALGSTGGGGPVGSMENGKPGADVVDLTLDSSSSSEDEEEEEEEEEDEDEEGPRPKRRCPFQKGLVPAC

[5] = target: SUMO-conjugating enzyme Ubc9, yeast two-hybrid fusion (UniProt P63279); experiment: two-hybrid

“E2A expressed during infection with HAdV wt (H5pg4100, HAdV-C5) (from UniProt P03265 1-529)” was tested, and the binding [1] was “binds” and the binding [2] was “binds”.

In the case of “endogenous Ubc9 (from UniProt P63279 1-158) (enzyme)”, the binding [3] is reported as “binds”.

In the case of “full-length adenoviral E2A (DNA binding protein, DBP), yeast two-hybrid fusion (from UniProt P03265 1-529)”, the binding [4] is reported as “no binding”.

In the case of “wild-type E2A expressed from pCMX3b-E2A (pE2A-wt) (from UniProt P03265 1-529)”, the binding [1] is reported as “binds”.

B1: SUMO E3 ligase PIAS4, yeast two-hybrid fusion (enzyme, UniProt Q8N2W9 1-510)
chain: T1 sequence
With B1 the binding [5] was “binds”.
